Source: patent US6252094A (The Scripps Research Institute, priority 1999, dated 2001)

Tested on: cell line panel including leukemia, ovarian, lung, and breast carcinoma cells
Test: Cytotoxicity (XTT, 72 hours) against cell line panel
Details: 2 versus taxol

Compound	differential cytotoxicity profiles
CC(=O)O[C@H]1C(=O)[C@@]2(C)[C@H]([C@H](OC(=O)c3ccccc3)[C@]3(O)C[C@H](OC(=O)[C@H](O)[C@@H](NC(=O)c4ccccc4)c4ccccc4)C(C)=C1C3(C)C)[C@]1(OC(C)=O)CO[C@@H]1C[C@@H]2O [taxol, reference compound]	similar, although some differences were noted
CC(=O)O[C@H]1C(=O)[C@@]2(C)[C@H]([C@H](OC(=O)c3ccccc3)[C@]3(O)C[C@H](OC(=O)[C@H](Oc4cccc[n+]4C)[C@@H](NC(=O)c4ccccc4)c4ccccc4)C(C)=C1C3(C)C)[C@]1(OC(C)=O)CO[C@@H]1C[C@@H]2O [taxol-2'-MPT]	similar, although some differences were noted
